PubChem BioAssay (NCI)
Values joined by “and” are separate entries in the source; they are usually repeats but may differ in a detail not shown here. Equal entries are not always repeated.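 Compound exposure: 48 hours, 5 concentrations, 96-well plates. Abbreviation: GI50, concentration required for 50% inhibition of growth. At the TGI there is no net growth.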 Square brackets hold non-standard residues; d marks the D form. Peptide text beside a SMILES is read from it. Phe(4-NO2) = N[CH](Cc1ccc([N+](=O)[O-])cc1)C(=O)O

tested on: NCI-H322M lung; test: NCI anticancer screen, dose series, 48 h

Structure (SMILES) | TGI | GI50
[N-]=[N+]=NC1C2CC3CC(C2)CC1C3 (stereo unspecified) | > 100 µM | 
CC(CCC(=O)O)c1ccc(Br)cc1 (stereo unspecified) | > 100 µM | 
COC(=O)CCC(NC(=O)C(CCC(=O)OC)NC(=O)C(CCC(=O)OC)NC(=O)C(CCC(=O)OC)NC(=O)C(CCC(=O)OC)NC(=O)C(Cc1ccc([N+](=O)[O-])cc1)NC(=O)C(CCC(=O)OC)NC(=O)C(CCC(=O)OC)NC(=O)C(CCC(=O)OC)NC(=O)C(CCC(=O)OC)NC(=O)C(CCC(=O)OC)NC(C)=O)C(N)=O (stereo unspecified) (Ac-E(OMe)E(OMe)E(OMe)E(OMe)E(OMe)[Phe(4-NO2)]E(OMe)E(OMe)E(OMe)E(OMe)E(OMe)-NH2; configuration not given here) | > 100 µM | 
COc1ccc(C(=O)c2cc(C)c(OC)c(C)c2)c(OC)c1N(C(=O)CCl)C(=O)CCl | > 100 µM | 0.0694 µM
N.N.NCCCCCN.O=C([O-])CC(=O)[O-].O=C([O-])CC(=O)[O-].[Pt+4].[Pt+4] | > 100 µM | > 100 µM
O=C(O)CNC(=O)C1NC(C(F)(F)F)(C(F)(F)F)OC1(C(F)(F)F)C(F)(F)F (stereo unspecified) | > 100 µM | 
O=C(N[C@@H](Cc1ccccc1)B(O)O)[C@H](Cc1cccc2ccccc12)NC(=O)N1CCOCC1 | 0.763 µM and 0.469 µM | 0.138 µM
S=C1SCN(C2CCCCCCCCCCC2)CN1C1CCCCCCCCCCC1 | > 100 µM | 
CC1=CC(=O)/C(=C/N2C(=O)CNC2=S)C(=O)O1 | > 100 µM | 
CSC1SCC2C(=O)N(C)C(C(C)C)C(=O)OCC(NC(=O)c3cnc4ccccc4n3)C(=O)NC(C)C(=O)N(C)C1C(=O)N(C)C(C(C)C)C(=O)OCC(NC(=O)c1cnc3ccccc3n1)C(=O)NC(C)C(=O)N2C (stereo unspecified) |  | < 0.001 µM
Clc1nc(Nc2nc3ccccc3[nH]2)nc(Cl)c1-c1ccccc1 | > 100 µM | 
CC1(C)CC[C@]2(C(=O)O)CC[C@]3(C)C(=CC[C@@H]4[C@@]5(C)CC[C@H](OC6OC(CO)C(O)C(O)C6O)C(C)(C)[C@@H]5CC[C@]43C)[C@@H]2C1 (stereo partly specified) | 2.98 µM | 
N#CC1=C(S)N(C2OC(CO)C(O)C(O)C2O)C(c2ccccc2)=CC1c1cccs1 (stereo unspecified) | 30.8 µM | 
N/C(=N\N=C\c1ccc(O)c(O)c1)NO | > 100 µM | 
C=COC(=O)N1C2CCCC(Cl)(C(C)=O)C1CC2 (stereo unspecified) | > 100 µM | 
C=C1C(=O)O[C@H]2[C@H]1CC/C(Cn1cc(-c3ccsc3)nn1)=C\CC[C@@]1(C)O[C@@H]21 | 22.7 µM | 10.5 µM
O=C(COC(=O)c1cccc2c(=O)c3ccccc3[nH]c12)Nc1ccc(S(=O)(=O)Nc2ncccn2)cc1 | > 100 µM | 
CC1(C)CN=C(Nc2ccc(F)c(Cl)c2)S1 | > 100 µM | 
C/C(=N\Nc1nc2ccccc2o1)c1cc2ccccc2cn1 | 14.7 µM | 
Cc1ccc(N2C3=C(CC4=C2CC(C)(C)CC4=O)C(=O)CC(C)(C)C3)cc1 | > 100 µM | 
COc1ncc(C#CC(=O)c2ccccc2)c(OC)n1 | 31.8 µM | 
O=C1/C(=C\c2cccc(Oc3ccccc3)c2)SC(c2ccccc2)N1c1cccc(Cl)c1 (stereo unspecified) | > 100 µM | 
S=C(S)N1CCN(c2ccccc2)CC1 | > 100 µM | 

Structure (SMILES) | TGI | GI50
O=C(Nc1ccc(-n2ccc3c(NC(=O)c4ccccc4)nccc32)cc1)c1ccc(N2CCOCC2)c(C(F)(F)F)c1 | > 51.6 µM | 4.63 µM
CCOC(=O)C1=C(C)N(C2OC(COC(C)=O)C(OC(C)=O)C(OC(C)=O)C2OC(C)=O)C(=O)NC1c1ccccc1 (stereo unspecified) | > 100 µM | 
Cc1ccc2c(=O)c(C(=O)NNC(=S)NC3CCCCC3)c[nH]c2n1 | > 100 µM | 
O=C(Nc1nccs1)NS(=O)(=O)n1cnc2ccccc21 | > 100 µM | 
COc1ccc(NC(=S)Nc2c(C)n(C)n(-c3ccccc3)c2=O)cc1 | > 100 µM | 
Cc1ccc(NC(=S)N=Nc2c(O)[nH]c3ccccc23)cc1 | > 100 µM | 
CN(C)c1c(C2CC(O)C(CO)O2)c(=O)c1=O (stereo unspecified) | > 100 µM | 
CNC(=O)OCC1=C(COC(=O)NC)C(C)N(c2ccccc2)C1 (stereo unspecified) | > 100 µM | 
O=C1c2ccccc2-c2c1c1ccc([N+](=O)[O-])cc1c(=O)n2CCCn1ccnc1 | 10.3 µM | 2.28 µM
CN(C(=O)c1ccc(Cl)cc1)C(=S)N1CCN(c2ccccc2)CC1 | > 100 µM | 
CN1CCN(c2ccc(-c3cccc(CN4CCOCC4)c3)cc2NC(=O)c2c[nH]c(=O)cc2C(F)(F)F)CC1 | > 100 µM | > 100 µM
N#CC(C(=O)O)C(c1c(Cl)cccc1Cl)C(C#N)C(=O)O (stereo unspecified) | > 100 µM | 
CC(=O)OCCCCn1cnc2c(Cl)nc(Nc3ccccc3)nc21 | > 100 µM | 
C/C(=N\NS(=O)(=O)c1c(C)cc(C)cc1C)c1ccc[n+]([O-])n1 | > 100 µM | 
OC[C@@H](O)[C@H](O)[C@@H](O)/C=N/Nc1ccc(Cl)nn1 | > 100 µM | 
C#CCN(Cc1nc2cc(C(F)(F)F)ccc2nc1-c1ccccc1)c1ccc(F)cc1 | 57.5 µM | 17.1 µM
CN1CCN(Cc2ccc(NC(=O)c3cccc(C#Cc4c(N)ncc5ccc(F)cc45)c3)cc2C(F)(F)F)CC1 | 2 µM | 0.969 µM
Fc1cc2nc3n(c2cc1F)C(c1c(Cl)cccc1Cl)SC3 (stereo unspecified) | 35.3 µM | 
CC(C)c1cc(C(=O)[O-])c(O)c(C(C)C)c1.CC(C)c1cc(C(=O)[O-])c(O)c(C(C)C)c1.CC(C)c1cc(C(=O)[O-])c(O)c(C(C)C)c1.CC(C)c1cc(C(=O)[O-])c(O)c(C(C)C)c1.CC(C)c1cc(C(=O)[O-])c(O)c(C(C)C)c1.CC(C)c1cc(C(=O)[O-])c(O)c(C(C)C)c1.[Cu+2].[Mn+2].[Mn+2] | 49.2 µM | 22.8 µM
NC(Cc1c[nH]c2cc(F)ccc12)C(=O)O (stereo unspecified) | > 2500 µM | 1180 µM
C#CCOC(=O)[C@@H](C)c1ccc2cc(OC)ccc2c1 | > 100 µM | 
COc1cc(C2SCC(=O)N2NC(=O)c2ccc(NC(C)=O)cc2OC)ccc1O (stereo unspecified) | > 100 µM | 
